Test results as given in the supplement of paper PMC10126150.
Values marked as one replicate rest on one cluster of the flow cell; about a third of the high ones do not repeat.

System: ATP
Experiment: switch fluorescence ratio, 500 uM ATP over buffer (Cy3 cluster intensity, sum of 5 cycles each) (fold (ratio)); higher = stronger signal-on switching upon ATP binding; sequences stand for … in TCGTCGGCAGCGTCAGATGTGTATAAGAGACAGTTTTTTTTTTTTTTTTTTTTTTTTT…TC
Conditions: aptamer strand: ATP DNA aptamer (quencher-CACCTGGGGGAGTATTGCGGAGGAAGG + anchor), 100 nM annealed; ATP concentration: 500 uM; one replicate
Outline: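 The quencher-labelled ATP aptamer, at 100 nM, was annealed to Cy3-labelled switching-strand clusters on a modified Illumina MiSeq flow-cell. The clusters were imaged in selection buffer, then after 15 min with 500 uM ATP at 22 °C, and this buffer/ATP cycle ran five times with NaOH stripping and re-annealing between runs. Per-cluster fluorescence ratios, summed target-cycle over summed buffer-cycle Cy3 intensity, were averaged per switch-domain sequence. Clusters outside 100-1000 RFU were excluded.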
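Also: ATP exposure 15 min at 22 °C before imaging.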

Sequence	switch fluorescence ratio
ATCACGAACG	1.3
GACGTGTGTG	0.966
CGTTTGATAG	0.99
CAAACGGTAA	1.08
TTTGATTTTA	0.967
GCGTATAAGG	0.947
TCAACCCTTT	1.01
TGGCTACGCC	1.41
ATAACTGGT	0.995
TGCTCGCAGG	1.13
TACATGACTG	1.17
CGAGGTCCCG	1.03
TAACGCGTGT	1.01
GTAATATTGG	0.993
TATTAACGGG	1.03
CTGGAAAATA	0.986
CCACTAACCT	1.84
GTGGCAAGCA	0.977
AAAATTCTTC	1.05
TACTACCAGT	1.07
GCGATTGTAT	0.99
TTTAGCAGTA	1.3
CATTGGAGA	0.975

Sequence	switch fluorescence ratio
CACCCCGATG	1.25
AGTAATGGCG	0.976
ATAACCCTGA	1.05
AGCTTGCGAA	1.05
AGGATCCGTG	0.999
GCCTGAGTAT	0.989
TTAGCGTTCC	2.09
ATCTAACCAG	1.05
CCCCGAGGGT	3.22
CACCATTTGC	1.01
TTCTTTGAGT	1.04
ACAGACAGAT	1.07
CCCCGGGAGG	1.17
AGCTCGTGAG	0.982
ATCGGGATTG	0.995
ATATTCTCGG	0.984
AAAGAAGTTA	0.982
TAATGGGTTG	1.01
TCGACTTTTT	1.03
TTTGCAACTT	0.991
AGAGTTAGGA	0.99
ATATCGATGG	1.01
CTTTGTCGCG	0.92

Sequence	switch fluorescence ratio
CTGTACTTTT	1
TTTGCTCCGT	4.27
AAGCCGTCG	0.961
TTATTCTTAC	1.23
CGTAGGTTGC	1
CATCAATGTT	1
TTACCACAC	1.49
GCTATAGAGA	0.972
CCCCGACCAA	4.69
CTACGTTGGT	1.07
TAAGAGTAGG	1.01
ATTCCGACAG	1.95
CTTTTGGCTA	1.26
CGAGTAATCC	1.74
CATTCTTACG	0.988
AATAGACTTG	0.977
CGTAGTGGAC	2.27
CGTGCACCT	1.05
AGCAAGTGCG	1.02
GATACTACTC	1.06
TTAAGTCCAT	1.05
GACGGAAAGA	1.03
CCACTACTAT	1.05

Sequence	switch fluorescence ratio
AGGCTATGTG	1.02
ACGTGTGCCT	1.04
ATGAGTGCGA	1.01
TTATACGCCG	1.01
ATTTGTCAAA	0.983
TCCGGAACTT	1.08
CTCCTCATAT	3.53
ATTTAGGAA	0.92
TATCGGTTTT	1.01
TCGGATGAAT	1.02
GGCTTGGCCT	0.989
CCGCAGCCTT	4.56
GTAAGAAGTC	1.1
ACTTGGTGCT	1.02
TACTTCATTA	1.02
TTGGAGACT	0.99
TTTGCCAGGG	1.06
CCAACCAAAT	1.03
ATAACCCACA	1.41
CAATGACATT	1.03
AAGGTGCTCC	1.01
CGGCTAATA	1.11
ACTGCATGTC	1.2

Sequence	switch fluorescence ratio
GACTTCAGCA	1.15
GCCGGTAGCG	0.998
ATCATACGAG	1.05
GGTGTTTCTA	0.995
GGAGCTTCCT	2.01
GGTAAGGGCA	1.03
CGCATCCCAA	1.54
ATCATATTAT	1.03
AGACTAAGGT	0.932
GGCTTAAACA	0.956
AACCTGAATG	1.07
CGTGCTGATA	0.998
GGAGGTTACG	0.992
CCCGACTGAT	1.05
AGAAACGTTC	1.07
GATGTGACGG	0.999
GTATCGGTGA	0.995
CTACACCGGT	1.04
TATGTGCAG	1.08
TAAGTACTTA	1.02
TGTGGGTTGC	0.988
CTCCTCAGTC	1.73
CATTTTAATC	1.05

Sequence	switch fluorescence ratio
GACACTTAAG	1.05
ATGAGGTAGT	0.998
ACTGAGTCA	1.04
TCAGCATTA	1.22
CCGCACAGA	5.03
TCTGCTCGG	1.03
TTATAGAGAT	0.99
GGGGACATAG	1.01
TTTAGTAGT	0.996
AAAAATATCC	0.949
GCGTTAGTCC	1.06
AGGGGTCAAG	0.97
GGGCGGCGGT	0.996
TATAGTGAAA	1.03
TGAAGCGTGA	1
CGTATCCGAT	1.02
TTACCTTATG	1.05
AATCGATTGT	1.01
AAACCCCATT	1.25
AATTTCTTGG	0.97
GACTCTGGAC	1.23
CGTACTCCGA	1.25
TGGTCGGCAT	1.01

Sequence	switch fluorescence ratio
TGTTTAGAAC	1.11
TCTGTACGCA	1.61
TATGAGCCAG	1
ATGGTGTGAT	0.994
ATGTGTTAGG	1.02
CAGGTCTGGA	1
ACGTTTCCCT	1.03
AGTGGCACT	1.01
ATCTAGGGG	1.02
AGGGGTCAC	1.01
CTCTTCAGTG	1.04
TTAAAAGTAA	0.995
GGACGTAGGA	0.954
GGGAGATGGT	0.96
AATCGAAAG	1.02
TCGTGACCTT	1.15
CGCGTGTAGT	1.02
CGGGGTGATC	1.01
ACTAGACCGC	1.19
